Test results from publication PMC4336329 (PLoS ONE, 2015).
About 14,000 (4.5%) of roughly 310,000 compounds showed an effect of 50% or more. Effects have a minus sign here. Some of the results follow.

target: human ether-à-go-go-related gene (hERG) potassium channel (human, UniProt Q12809); assay: primary screen, population patch clamp on CHO cells stably expressing hERG
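Further: peak tail current of the secondary pulse compared with the same well before compound.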

Chain of human ether-à-go-go-related gene (hERG) potassium channel (Q12809 whole entry, looked up): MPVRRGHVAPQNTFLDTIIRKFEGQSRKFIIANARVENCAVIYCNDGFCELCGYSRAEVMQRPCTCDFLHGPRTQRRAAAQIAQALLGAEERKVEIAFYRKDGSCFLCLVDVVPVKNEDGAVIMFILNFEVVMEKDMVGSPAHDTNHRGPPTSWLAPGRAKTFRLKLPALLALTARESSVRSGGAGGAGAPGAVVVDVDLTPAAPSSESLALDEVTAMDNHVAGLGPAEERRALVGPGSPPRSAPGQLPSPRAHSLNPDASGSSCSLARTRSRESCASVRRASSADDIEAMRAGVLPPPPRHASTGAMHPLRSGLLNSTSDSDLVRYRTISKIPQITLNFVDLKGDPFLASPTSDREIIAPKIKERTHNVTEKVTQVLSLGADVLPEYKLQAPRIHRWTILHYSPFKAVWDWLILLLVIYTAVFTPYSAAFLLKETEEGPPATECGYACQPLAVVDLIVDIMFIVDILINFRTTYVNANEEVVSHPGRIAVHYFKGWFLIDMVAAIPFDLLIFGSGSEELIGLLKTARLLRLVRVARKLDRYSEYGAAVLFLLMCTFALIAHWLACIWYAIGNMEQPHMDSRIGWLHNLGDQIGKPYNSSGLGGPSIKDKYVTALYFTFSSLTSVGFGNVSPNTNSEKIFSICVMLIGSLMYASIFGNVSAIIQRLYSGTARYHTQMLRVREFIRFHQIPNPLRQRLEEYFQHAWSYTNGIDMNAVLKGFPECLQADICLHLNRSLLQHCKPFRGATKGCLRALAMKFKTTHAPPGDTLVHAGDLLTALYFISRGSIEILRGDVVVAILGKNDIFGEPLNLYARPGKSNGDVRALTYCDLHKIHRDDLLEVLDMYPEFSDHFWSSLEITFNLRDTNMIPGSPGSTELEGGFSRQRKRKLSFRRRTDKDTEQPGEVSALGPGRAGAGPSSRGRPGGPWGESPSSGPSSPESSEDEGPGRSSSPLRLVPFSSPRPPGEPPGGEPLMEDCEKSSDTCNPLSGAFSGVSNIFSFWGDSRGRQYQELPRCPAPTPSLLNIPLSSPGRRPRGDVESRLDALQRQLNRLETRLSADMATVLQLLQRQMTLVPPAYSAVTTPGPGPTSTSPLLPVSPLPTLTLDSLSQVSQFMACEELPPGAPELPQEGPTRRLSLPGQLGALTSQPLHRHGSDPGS

First: C=CCn1c(SCc2csc(C)n2)nc2scc(-c3ccc(C)o3)c2c1=O
Second: Cc1csc(NC(=O)c2ccc(C(=O)Nc3nc(C)cs3)cc2)n1
The “hERG current change (%, negative = inhibition) at 10uM” value of the first is lower: -14% for the first, 0.962% for the second.

Going from C=CCN1C(=O)c2ccccc2Sc2ccc(C(=O)NCC(OC)OC)cc21 to CCN(C(=O)c1ccc(NC(=O)c2ccco2)cc1)c1ccccc1, the “hERG current change (%, negative = inhibition) at 10uM” value falls from 7.24% to 0.858%.

Going from COc1ccc(S(=O)(=O)Nc2cc3[nH]c(=O)oc3cc2C)cc1 to CCOC(=O)Cn1c(=O)oc2cc(S(=O)(=O)NCCc3ccc(OCC)c(OCC)c3)ccc21, the “hERG current change (%, negative = inhibition) at 10uM” value falls from 14.7% to -13.7%.

First: CCOc1cc(N2CCOCC2)c(OCC)cc1NC(=O)COc1ccc2ccc(=O)oc2c1
Second: COCCN(CC(=O)Nc1cccc(C)c1C)C(=O)c1cc(S(=O)(=O)N2CCCC2)ccc1C
The “hERG current change (%, negative = inhibition) at 10uM” value of the first is higher: 6.18% for the first, -3.93% for the second.

Going from CCOc1ccc2nc(SCc3ccc(OC)cc3)sc2c1 to CCOc1cc(-c2noc(-c3ccncc3)n2)cc(Br)c1OC, the “hERG current change (%, negative = inhibition) at 10uM” value falls from 7.35% to 4.5%.

Going from CN(C)S(=O)(=O)c1ccc(C(=O)OCCn2cnc3c2c(=O)n(C)c(=O)n3C)cc1 to Cn1c(=O)c2c(nc(N3CCN(c4ccc([N+](=O)[O-])cc4)CC3)n2C)n(C)c1=O, the “hERG current change (%, negative = inhibition) at 10uM” value falls from -2.76% to -76.2%.

Going from O=C1OCCC1Sc1nnnn1-c1ccc(Cl)cc1 (stereo not drawn) to Nc1cc(=O)nc(SCC(=O)N2CCN(c3ccccc3)CC2)n1-c1ccccc1, the “hERG current change (%, negative = inhibition) at 10uM” value rises from 2.19% to 18.3%.

Going from Cc1ccc(SCCNC(=S)Nc2cc(C)cc(C)c2)cc1 to CCOC(=O)N1CCN(C(=O)CN(c2cccc(C)c2)S(=O)(=O)c2ccc(C)cc2)CC1, the “hERG current change (%, negative = inhibition) at 10uM” value falls from 6.33% to -39.7%.

First: O=S(=O)(Cc1ccccc1)N(O)c1ccccc1
Second: CS(=O)(=O)Nc1cccc(C2=NN(C(=O)c3ccccc3)C(c3cccs3)C2)c1 (stereo not drawn)
The “hERG current change (%, negative = inhibition) at 10uM” value of the first is higher: 17.6% for the first, -14% for the second.

Going from Cn1cc([N+](=O)[O-])c(C(=O)Nc2nccs2)n1 to CCOC(=O)c1cc(-c2ccc(F)cc2)n(CC(=O)NCc2ccccn2)c1C, the “hERG current change (%, negative = inhibition) at 10uM” value falls from 15.6% to 5.76%.

Compared with CC(Oc1cccc(Cl)c1)C(=O)NC1CC(C)(C)NC(C)(C)C1 (stereo not drawn), CN(C)CCCOC(=O)c1ccc(Cl)cc1Cl.Cl is lower in “hERG current change (%, negative = inhibition) at 10uM” value: -2.65% for the first, -38.8% for the second.

Compared with CC(C)(C)c1ccc(/C=C/C(=O)N2CCOCC2)cc1, N#CC1(NC(=O)COC(=O)c2ncc(Cl)c(Cl)c2Cl)CCCCC1 is lower in “hERG current change (%, negative = inhibition) at 10uM” value: 1.09% for the first, -22.3% for the second.
